The labels stand for the following.
B1: ZNF668, Q96K58 (protein)
chain: MEVEAAEARSPAPGYKRSGRRYKCLSCTKTFPNAPRAARHAATHGPADCSEEVAEVKPKPETEAKAEEASGEKVSGSAAKPRPYACPLCPKAYKTAPELRSHGRSHTGEKPFPCPECGRRFMQPVCLRVHLASHAGELPFRCAHCPKAYGALSKLKIHQRGHTGERPYACADCGKSFADPSVFRKHRRTHAGLRPYSCERCGKAYAELKDLRNHERSHTGERPFLCSECGKSFSRSSSLTCHQRIHAAQKPYRCPACGKGFTQLSSYQSHERTHSGEKPFLCPRCGRMFSDPSSFRRHQRAHEGVKPYHCEKCGKDFRQPADLAMHRRVHTGDRPFKCLQCDKTFVASWDLKRHALVHSGQRPFRCEECGRAFAERASLTKHSRVHSGERPFHCNACGKSFVVSSSLRKHERTHRSSEAAGVPPAQELVVGLALPVGVAGESSAAPAAGAGLGDPPAGLLGLPPESGGVMATQWQVVGMTVEHVECQDAGVREAPGPLEGAGEAGGEEADEKPPQFVCRECKETFSTMTLLRRHERSHPELRPFPCTQCGKSFSDRAGLRKHSRTHSSVRPYTCPHCPKAFLSASDLRKHERTHPVPMGTPTPLEPLVALLGMPEEGPA
B2: SIX3, O95343 (protein)
chain: MVFRSPLDLYSSHFLLPNFADSHHRSILLASSGGGNGAGGGGGAGGGSGGGNGAGGGGAGGAGGGGGGGSRAPPEELSMFQLPTLNFSPEQVASVCETLEETGDIERLGRFLWSLPVAPGACEAINKHESILRARAVVAFHTGNFRDLYHILENHKFTKESHGKLQAMWLEAHYQEAEKLRGRPLGPVDKYRVRKKFPLPRTIWDGEQKTHCFKERTRSLLREWYLQDPYPNPSKKRELAQATGLTPTQVGNWFKNRRQRDRAAAAKNRLQHQAIGPSGMRSLAEPGCPTHGSAESPSTAASPTTSVSSLTERADTGTSILSVTSSDSECDV
B3: REST, Q13127 (protein)
chain: MATQVMGQSSGGGGLFTSSGNIGMALPNDMYDLHDLSKAELAAPQLIMLANVALTGEVNGSCCDYLVGEERQMAELMPVGDNNFSDSEEGEGLEESADIKGEPHGLENMELRSLELSVVEPQPVFEASGAPDIYSSNKDLPPETPGAEDKGKSSKTKPFRCKPCQYEAESEEQFVHHIRVHSAKKFFVEESAEKQAKARESGSSTAEEGDFSKGPIRCDRCGYNTNRYDHYTAHLKHHTRAGDNERVYKCIICTYTTVSEYHWRKHLRNHFPRKVYTCGKCNYFSDRKNNYVQHVRTHTGERPYKCELCPYSSSQKTHLTRHMRTHSGEKPFKCDQCSYVASNQHEVTRHARQVHNGPKPLNCPHCDYKTADRSNFKKHVELHVNPRQFNCPVCDYAASKKCNLQYHFKSKHPTCPNKTMDVSKVKLKKTKKREADLPDNITNEKTEIEQTKIKGDVAGKKNEKSVKAEKRDVSKEKKPSNNVSVIQVTTRTRKSVTEVKEMDVHTGSNSEKFSKTKKSKRKLEVDSHSLHGPVNDEESSTKKKKKVESKSKNNSQEVPKGDSKVEENKKQNTCMKKSTKKKTLKNKSSKKSSKPPQKEPVEKGSAQMDPPQMGPAPTEAVQKGPVQVEPPPPMEHAQMEGAQIRPAPDEPVQMEVVQEGPAQKELLPPVEPAQMVGAQIVLAHMELPPPMETAQTEVAQMGPAPMEPAQMEVAQVESAPMQVVQKEPVQMELSPPMEVVQKEPVQIELSPPMEVVQKEPVKIELSPPIEVVQKEPVQMELSPPMGVVQKEPAQREPPPPREPPLHMEPISKKPPLRKDKKEKSNMQSERARKEQVLIEVGLVPVKDSWLLKESVSTEDLSPPSPPLPKENLREEASGDQKLLNTGEGNKEAPLQKVGAEEADESLPGLAANINESTHISSSGQNLNTPEGETLNGKHQTDSIVCEMKMDTDQNTRENLTGINSTVEEPVSPMLPPSAVEEREAVSKTALASPPATMAANESQEIDEDEGIHSHEGSDLSDNMSEGSDDSGLHGARPVPQESSRKNAKEALAVKAAKGDFVCIFCDRSFRKGKDYSKHLNRHLVNVYYLEEAAQGQE
B4: TRIM13, O60858 (protein)
chain: MELLEEDLTCPICCSLFDDPRVLPCSHNFCKKCLEGILEGSVRNSLWRPAPFKCPTCRKETSATGINSLQVNYSLKGIVEKYNKIKISPKMPVCKGHLGQPLNIFCLTDMQLICGICATRGEHTKHVFCSIEDAYAQERDAFESLFQSFETWRRGDALSRLDTLETSKRKSLQLLTKDSDKVKEFFEKLQHTLDQKKNEILSDFETMKLAVMQAYDPEINKLNTILQEQRMAFNIAEAFKDVSEPIVFLQQMQEFREKIKVIKETPLPPSNLPASPLMKNFDTSQWEDIKLVDVDKLSLPQDTGTFISKIPWSFYKLFLLILLLGLVIVFGPTMFLEWSLFDDLATWKGCLSNFSSYLTKTADFIEQSVFYWEQVTDGFFIFNERFKNFTLVVLNNVAEFVCKYKLL
B5: VDR, P11473 (protein)
chain: MEAMAASTSLPDPGDFDRNVPRICGVCGDRATGFHFNAMTCEGCKGFFRRSMKRKALFTCPFNGDCRITKDNRRHCQACRLKRCVDIGMMKEFILTDEEVQRKREMILKRKEEEALKDSLRPKLSEEQQRIIAILLDAHHKTYDPTYSDFCQFRPPVRVNDGGGSHPSRPNSRHTPSFSGDSSSSCSDHCITSSDMMDSSSFSNLDLSEEDSDDPSVTLELSQLSMLPHLADLVSYSIQKVIGFAKMIPGFRDLTSEDQIVLLKSSAIEVIMLRSNESFTMDDMSWTCGNQDYKYRVSDVTKAGHSLELIEPLIKFQVGLKKLNLHEEEHVLLMAICIVSPDRPGVQDAALIEAIQDRLSNTLQTYIRCRHPPPGSHLLYAKMIQKLADLRSLNEEHSKQYRCLSFQPECSMKLTPLVLEVFGNEIS
B6: ZBTB20, Q9HC78 (protein)
chain: MLERKKPKTAENQKASEENEITQPGGSSAKPGLPCLNFEAVLSPDPALIHSTHSLTNSHAHTGSSDCDISCKGMTERIHSINLHNFSNSVLETLNEQRNRGHFCDVTVRIHGSMLRAHRCVLAAGSPFFQDKLLLGYSDIEIPSVVSVQSVQKLIDFMYSGVLRVSQSEALQILTAASILQIKTVIDECTRIVSQNVGDVFPGIQDSGQDTPRGTPESGTSGQSSDTESGYLQSHPQHSVDRIYSALYACSMQNGSGERSFYSGAVVSHHETALGLPRDHHMEDPSWITRIHERSQQMERYLSTTPETTHCRKQPRPVRIQTLVGNIHIKQEMEDDYDYYGQQRVQILERNESEECTEDTDQAEGTESEPKGESFDSGVSSSIGTEPDSVEQQFGPGAARDSQAEPTQPEQAAEAPAEGGPQTNQLETGASSPERSNEVEMDSTVITVSNSSDKSVLQQPSVNTSIGQPLPSTQLYLRQTETLTSNLRMPLTLTSNTQVIGTAGNTYLPALFTTQPAGSGPKPFLFSLPQPLAGQQTQFVTVSQPGLSTFTAQLPAPQPLASSAGHSTASGQGEKKPYECTLCNKTFTAKQNYVKHMFVHTGEKPHQCSICWRSFSLKDYLIKHMVTHTGVRAYQCSICNKRFTQKSSLNVHMRLHRGEKSYECYICKKKFSHKTLLERHVALHSASNGTPPAGTPPGARAGPPGVVACTEGTTYVCSVCPAKFDQIEQFNDHMRMHVSDG

The source of these data is the supplement of paper PMC12423691.

The list shows a part of the results. Binding of human transcription factors and regulators to the viral nucleoprotein by AlphaScreen, crude cell-free proteins, amounts not normalised, one pass. Fold of the Venus control; higher = more signal. No active / inactive call. Single-pass screen; sequences are the whole Swiss-Prot entries looked up by name.

The target of this experiment is nucleoprotein N of Crimean-Congo hemorrhagic fever virus. As to the kind of experiment: AlphaScreen luminescence signal relative to Venus negative control (fold); higher = stronger binding to CCHFV N. The procedure:
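AlphaScreen binding of cell-free made, FLAG-GST-tagged human transcription factors and regulators (crude translation products) to biotinylated N protein; signal as fold of the FLAG-GST-Venus control. One pass.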
For orientation: Bead proximity is the source of the signal in Alpha formats.
Molecule B1 came in with an AlphaScreen luminescence signal of 1.81.

On to B2, for which the AlphaScreen luminescence signal stood at 85.1. As for B3, the AlphaScreen luminescence signal was found to be 1.72. Then B4, with 3.07; and B5, with 1.81. B6: the AlphaScreen luminescence signal was determined as 2.19.
